Viability of KB3-1 and Nalm-6 cells after 48 h of drug alone (CellTiter-Glo), 11 doses over about 4.5 log units. % of DMSO wells, lower = more cell loss; AC50 from the fitted curve, lower = more potent. No active / inactive call. Nalm-6 was screened in two runs. AC50 is listed only for well-fitted inhibitory curves. KB3-1 is a HeLa-derived carcinoma line, Nalm-6 a B-cell precursor leukaemia line.
Key:
[1] = system: KB3-1; test: viability (% of DMSO control); higher = more viable cells
Method: (§1)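 Eleven-dose screen of the NCATS MIPE 3 library on cells without co-treatment; CellTiter-Glo after 48 h, as % of DMSO wells.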

[2] = system: Nalm-6; test: as above
Method: as §1

Structure (SMILES)	viability ([1]; 0.00078 µM)	viability ([1]; 0.00234 µM)	viability ([1]; 0.00702 µM)	viability ([1]; 0.0211 µM)	viability ([1]; 0.0632 µM)	viability ([1]; 0.19 µM)	viability ([1]; 0.569 µM)	viability ([1]; 1.71 µM)	viability ([1]; 5.12 µM)	viability ([1]; 15.4 µM)	viability ([1]; 46.1 µM)	viability ([2]; run: 1, 0.00078 µM)	viability ([2]; run: 1, 0.00234 µM)	viability ([2]; run: 1, 0.00702 µM)	viability ([2]; run: 1, 0.0211 µM)	viability ([2]; run: 1, 0.0632 µM)	viability ([2]; run: 1, 0.19 µM)	viability ([2]; run: 1, 0.569 µM)	viability ([2]; run: 1, 1.71 µM)	viability ([2]; run: 1, 5.12 µM)	viability ([2]; run: 1, 15.4 µM)	viability ([2]; run: 1, 46.1 µM)	viability ([2]; run: 2, 0.00078 µM)	viability ([2]; run: 2, 0.00234 µM)	viability ([2]; run: 2, 0.00702 µM)	viability ([2]; run: 2, 0.0211 µM)	viability ([2]; run: 2, 0.0632 µM)	viability ([2]; run: 2, 0.19 µM)	viability ([2]; run: 2, 0.569 µM)	viability ([2]; run: 2, 1.71 µM)	viability ([2]; run: 2, 5.12 µM)	viability ([2]; run: 2, 15.4 µM)	viability ([2]; run: 2, 46.1 µM)
CCCc1nn(C)c2c(=O)[nH]c(-c3cc(S(=O)(=O)N4CCN(C)CC4)ccc3OCC)nc12.O=C(O)CC(O)(CC(=O)O)C(=O)O [Sildenafil citrate]	103%	97.9%	99.6%	103%	100%	103%	100%	100%	97.2%	98.4%	97.6%	86.1%	80.3%	101%	101%	104%	105%	111%	111%	116%	117%	105%	113%	113%	112%	109%	114%	114%	99.9%	110%	110%	109%	99.9%
O=C(O)c1cc(/N=N/c2ccc(S(=O)(=O)Nc3ccccn3)cc2)ccc1O [Sulfasalazine]	98.2%	97.4%	99.7%	98%	103%	103%	98.8%	99.7%	101%	96.5%	98.4%	97.6%	105%	98%	98.9%	107%	103%	104%	118%	112%	110%	107%	110%	111%	100%	108%	104%	101%	105%	112%	104%	106%	106%
C[C@@H]1CN(Cc2ccc(F)cc2)[C@@H](C)CN1C(=O)c1cc2c(C(=O)C(=O)N(C)C)cn(C)c2cc1Cl [Talmapimod]	108%	98.2%	103%	107%	108%	101%	105%	92.3%	104%	103%	42.8%	114%	110%	106%	121%	109%	100%	114%	108%	91.3%	98.2%	79.6%	102%	102%	99.4%	101%	104%	105%	103%	99.1%	92.4%	94.5%	70%
CNC(=O)c1cc(COc2nnc(Nc3ccc(Cl)cc3)c3ccoc23)ccn1 [Telatinib]	100%	101%	103%	102%	100%	102%	101%	104%	102%	105%	67.8%	97.9%	103%	107%	108%	99.4%	118%	110%	118%	95.6%	115%	35.4%	103%	111%	111%	107%	101%	113%	106%	106%	104%	102%	8.59%
C[C@@H]1CCN(C(=O)CC#N)C[C@@H]1N(C)c1ncnc2[nH]ccc12 [Tofacitinib]	99.6%	107%	102%	99.9%	93.9%	98.9%	93.8%	94.8%	92.6%	93.3%	91.1%	112%	118%	114%	121%	123%	128%	123%	118%	110%	110%	82.8%	111%	106%	106%	113%	108%	112%	112%	107%	110%	109%	111%

Reference: the supplement of paper PMC4996465
